Hit rate of the full screen: of about 350,000 compounds, about 9,900 (2.8%) were called active. The shares of active, inactive and inconclusive entries below differ from those in the screen. Calls follow the shape of the dose curve; as a rule, active = well fitted activation curve with a large enough effect; inconclusive = small, poorly fitted or top-dose-only effect; inactive = no such curve, though single readings can be large or run the other way. No potency is given beside an inconclusive call; the fits are too rough.
assay: A quantitative high throughput screen for small molecules that induce DNA re-replication in MCF 10a normal breast cells.; also: nearly all actives have a fitted effect of over 50% in size; as to activity, positive = re-replication: % of control where 0% means no effect; settings: MCF 10A DNA re-replication, Hoechst nuclear intensity, 48 h; activity, positive = re-replication: at 46.1 µM (top of the series)
Potency is read from the fitted curve at half-maximal effect; tags tell the direction and shape of the fitted curve.

Row | Structure (SMILES) | Potency | activity, positive = re-replication
1 | CCCC(=O)N1CCN(c2ccc(NC(=O)c3ccc([N+](=O)[O-])o3)cc2Cl)CC1 | active: 1.84 µM | –
2 | CCc1cccc(CC)c1NC(=O)/C(C#N)=C/c1ccccc1C(F)(F)F | active: 11.6 µM | –
3 | CCNC(=S)NNC(=O)c1csc2c1CCC(C)C2 (stereo not given) | inconclusive [activator, single point] | –
4 | COc1ccc(-c2cc(C(F)(F)F)nc(N3CCCCCC3)n2)cc1 | active: 23.1 µM | –
5 | NC(=O)[C@@H]1CC2(CC(c3cccc(NC(=O)[C@H]4CCC(=O)N4)c3)=NO2)CN1C(=O)COc1ccc(Cl)cc1 (stereo not given in full) | inconclusive [activator, single point] | –
6 | COc1cccc(N2CCN(C(=O)C3CCC(=O)N(C4CCCCCC4)C3)CC2)c1 (stereo not given) | inconclusive [activator, partial curve] | –
7 | COC(=O)c1cc(Cl)c(NC(=O)/C=C/c2ccc(Cl)cc2)cc1OC | inconclusive [activator, single point] | –
8 | c1ccc(Nc2nc(-c3ccccc3)nc3ccccc23)cc1 | inconclusive [activator, single point] | –
9 | O=C1N(c2ccccc2)C[C@@H]2C[C@@H](c3cc4ccccc4o3)N3CCC[C@@]123 | inconclusive [activator, partial curve, poor fit] | –
10 | O=C(Nc1ccc(C(=O)N2CCCC2)cc1)c1ccccc1 | – | inactive: 7.29%
11 | O=C(Cc1cccc2ccccc12)NNC(=O)Nc1cccc(Cl)c1 | inconclusive [activator, single point] | –
12 | C[N+](C)(C)CC[N+]1(C)Cc2c(Cl)c(Cl)c(Cl)c(Cl)c2C1 | – | inactive: 8.32%
13 | Cc1ccc2cc(CN(CC3CCCO3)C(=O)NC3CCCCC3)c(=O)[nH]c2c1C (stereo not given) | inconclusive [activator, partial curve, poor fit] | –
14 | Cc1ccc(-c2noc(N=O)c2NO)cc1 | inconclusive [activator, partial curve, poor fit] | –
15 | O=C1N/C(=C/c2ccc(Br)s2)C(=O)N1c1ccccc1 | inconclusive [activator, single point] | –
16 | CCOc1cc(/C=N/NC(=O)c2cccs2)cc([N+](=O)[O-])c1O | – | inactive: 6.2%
17 | c1ccc(-c2cc3cc4c(cc3cn2)OCO4)cc1 | inconclusive [activator, full curve, poor fit] | –
18 | COc1cccc(N/C=C/C(=O)c2ccc(Cl)cc2)c1 | inconclusive [activator, single point] | –
19 | C[C@H](CO)N1C[C@H](C)[C@@H](CN(C)Cc2ccccc2)Oc2c(NC(=O)c3ccncc3)cccc2C1=O | – | inactive: -0.96%
20 | COc1ccc(NC(=O)CN2CCN(C3c4ccccc4-c4ccccc43)CC2)c(OC)c1 | active: 8.2 µM | –
21 | CSc1ccc(CN(C)CC(=O)Nc2ccccc2Br)cc1 | inconclusive [activator, single point] | –
22 | CCc1c(C)sc(NC(=O)Cn2nc(C(F)(F)F)c3c2CCCC3)c1C#N | inconclusive [activator, full curve] | –
23 | CC(Oc1ccc(Br)cc1)C(=O)Nc1ccc(S(=O)(=O)NC2=NCCCCC2)cc1 (stereo not given) | – | inactive: -2.81%
24 | COc1ccc(NC(=O)c2cc(-c3ccc(C)cc3)on2)cc1OC | inconclusive [activator, single point] | –

Row | Structure (SMILES) | Potency | activity, positive = re-replication
25 | O=S(=O)(N/N=C/c1ccc(Cl)cc1)c1ccc(Cc2ncc(C(F)(F)F)cc2Cl)s1 | inconclusive [activator, single point] | –
26 | CS/C(=C\[N+](=O)[O-])Nc1ccc(Cl)cc1 | inconclusive [activator, partial curve] | –
27 | Cc1nnc(C)n1/N=C/c1cccs1 | – | inactive: -6.64%
28 | CC1(C)C(=O)OC(c2c(F)c(F)c(F)c(F)c2F)C2(CCCCC2)C1=O (stereo not given) | – | inactive: 8.16%
29 | O=C1CC(c2ccccc2)(c2ccccc2)c2ccccc21 | inconclusive [activator, partial curve, poor fit] | –
30 | Cc1ccc(C(=O)Nc2cccc(C(F)(F)F)c2)cc1NC(=O)c1csc(-c2ccncc2)n1 | – | inactive: 17.9%
31 | CC1(C(=O)N(Cc2ccccc2)Cc2ccccc2)CC1(Br)Br (stereo not given) | inconclusive [activator, single point] | –
32 | O=C(Cn1cncn1)NCc1cccc(C(F)(F)F)c1 | active: 0.651 µM | –
33 | O=C(N/N=C\C=C\c1ccco1)c1cc(-c2ccc3ccccc3c2)n[nH]1 | active: 7.31 µM | –
34 | C/C(=N\NS(=O)(=O)c1ccc(Cl)c([N+](=O)[O-])c1)c1ccc(C)o1 | inconclusive [activator, single point] | –
35 | O=C(/C=C\c1ccco1)Nc1ccc(N2CCN(C(=O)c3ccccc3)CC2)cc1 | inconclusive [activator, partial curve, poor fit] | –
36 | Fc1ccc(-c2nnn3c2nc(NCc2ccccc2)c2ccccc23)cc1 | inconclusive [activator, partial curve, poor fit] | –
37 | COc1ccc(CC(=O)O/N=C(\N)c2ccc(C)cc2)cc1 | – | inactive: -0.312%
38 | COc1ccc(C2=NC(C(F)(F)F)(C(F)(F)F)c3c(n(C)c(=O)n(C)c3=O)N2)cc1 | inconclusive [activator, partial curve, poor fit] | –
39 | C/C(=N\NC(=O)C(C)n1nc(C)c([N+](=O)[O-])c1C)c1ccccc1O (stereo not given) | inconclusive [activator, partial curve, poor fit] | –
40 | COc1ccc2nc(Nc3ccc4c(c3)OCO4)sc2c1 | – | inactive: 19%
41 | CC(C)(C)[C@@H]1COC(=O)[C@@H](Cc2ccc(F)cc2)C/C=C\C[C@H](CC(=O)N(CCO)Cc2ccccc2)C(=O)N1 | – | inactive: 50.9%
42 | Cc1ccccc1CN1CCN(Cc2cc3ccccc3o2)CC1CCO (stereo not given) | inconclusive [activator, single point] | –
43 | Cc1ccc2oc(C(=O)NCC3CCOCC3)c(C)c2c1 | – | inactive: -5.66%
44 | COc1ccc2[nH]c(=O)c(CN(Cc3nnnn3Cc3ccccc3)CC3CCCO3)cc2c1 (stereo not given) | – | inactive: 3.64%
45 | Cc1ccc(OCC(=O)Nc2ccc(NC(=O)c3ccccc3)c(C)c2)cc1 | inconclusive [activator, full curve] | –
46 | CN(C(=S)Nc1ccc(Oc2ccccc2)cc1)c1ccc(O)cc1 | inconclusive [activator, full curve] | –
47 | Clc1ccc(CN2CCN(c3ncnc4scc(-c5cccs5)c34)CC2)cc1 | inconclusive [activator, single point] | –
48 | O=C(Nc1cccc(-c2nc3ccccc3o2)c1)c1cccnc1 | inconclusive [activator, partial curve, poor fit] | –

Row | Structure (SMILES) | Potency | activity, positive = re-replication
49 | CN(C(=O)CCN1C(=O)c2ccccc2C1=O)C1CCCCC1 | – | inactive: -9.15%
50 | O=C(c1ccc(-c2cccc(C(F)(F)F)c2)o1)N1CCOCC1 | – | inactive: -1.08%
51 | COc1ccc(OC)c(NC(=O)c2cc3c(Cl)nc4ccccc4c3s2)c1 | inconclusive [activator, full curve] | –
52 | CC#CCN1c2ccccc2[C@]23C[C@@H](C(=O)OC)N(C(=O)c4ccco4)C2=NC(C(=O)OC)=C(C(=O)OC)[C@H]13 | inconclusive [activator, single point] | –
53 | O=S(=O)(NCc1ccccc1)c1ccccc1NCCc1ccccc1 | – | inactive: 7.69%
54 | O=c1[nH]c(C2CCN(S(=O)(=O)Cc3ccccc3)CC2)nc2c1nnn2Cc1cccc(Cl)c1 | inconclusive [activator, single point] | –
55 | COCCn1cc(-c2csc(N)n2)c2ccccc21 | – | inactive: -11%
56 | CSc1cccc(N2CC(C(=O)N3CCN(S(=O)(=O)c4ccccc4Cl)CC3)CC2=O)c1 (stereo not given) | – | inactive: 4.47%
57 | Cc1cccc(OCCCCc2c(C)n[nH]c2C)c1C | inconclusive [activator, partial curve] | –
58 | Cc1ccc(NC(=O)CSc2nc(=O)n(CCCN3CCOCC3)c3c2CCCC3)cc1 | – | inactive: -1.99%
59 | CCOc1cc(N2CCOCC2)c(OCC)cc1NC(=O)c1ccccc1C | – | inactive: -6.89%
60 | Cc1cc(N2CCN(C)CC2)nc2ccc(NC(=O)c3ccccc3F)cc12 | inconclusive [activator, single point] | –
61 | O=C1c2ccccc2C(O)(c2ncc[nH]2)N1CCc1ccccc1 (stereo not given) | inconclusive [activator, single point] | –
62 | O=c1cc(-c2ccc(O)cc2)oc2ccc3ccccc3c12 | active: 18.4 µM | –
63 | Cc1cc(C(=O)CCl)c(C)n1-c1cccc([N+](=O)[O-])c1 | inconclusive [activator, full curve, poor fit] | –
64 | COc1ccc([C@@H]2[C@@H]3C(=O)N(C(C)(C)C)C(=O)[C@@H]3[C@]3(Cc4ccccc4)C(=O)N(c4cccc(Cl)c4)C(=O)N23)cc1 | – | inactive: -4.4%
65 | COc1ccccc1OCCOCCOc1ccc(C)cc1Br | inconclusive [activator, partial curve] | –
66 | Cc1cc2ccccn2c1C(=O)c1ccc([N+](=O)[O-])o1 | inconclusive [activator, single point] | –
67 | COc1cccc(-c2nc(C(N)=O)c3[nH]c(=O)n(-c4cccc(Cl)c4)c3n2)c1OC | – | inactive: 12.8%
68 | O=c1[nH]c(NCCO)c(N=Cc2ccccc2)c(=O)[nH]1 | inconclusive [activator, single point] | –
69 | O=C(/C=C/c1ccc(O)c(O)c1)OCCc1ccccc1 | inconclusive [activator, single point] | –
70 | COC(=O)C1CSC(C)(C)C(=O)N1 (stereo not given) | active: 0.92 µM | –
